Laboratory results as given in the supplement of paper PMC11417369.
The other results are listed elsewhere or left out.

The sequences below were run on PF3D7_0420300 AP2 domain 1 (GST-tagged) (assay: gcPBM binding intensity (ln(normalized median fluorescence intensity)); higher = stronger DNA binding).
Procedure, shortened: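 An Agilent 4 × 180k array of primer-extended double-stranded 36-bp intergenic genomic probes, with negative controls, was incubated for 1 h with GST-tagged P. falciparum DNA-binding domains expressed in E. coli. Alexa488 anti-GST antibody detected bound protein, scanned at 488 nm. Binding intensity is the highest Masliner-normalised natural-log median intensity across replicate spots of either probe orientation.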
With “TAAAAATATAAATTTTGTACGTAAAAAATGGTTCTT [XGTACX_site1506]” the “gcPBM binding intensity (ln)” value was 9.23.
With “TGACCGTTTTAAGAGTGTACAAAAAAAAAAAAAAAA [XGTACX_site4141]” the “gcPBM binding intensity (ln)” value was 8.5.
For “TATTCTATATAATAATGTACGTGATTTAAATTTTCA [XGTACX_site6650]”, the “gcPBM binding intensity (ln)” value was 9.01.
In the case of “AAAAATATTTTGGTTTGTACATATATTTTTACAATA [XGTACX_site8691]”, the “gcPBM binding intensity (ln)” value is reported as 9.16.
With “ACTTATTTCGATATGTGTACTTAATATATATATTTA [XGTACX_site6616]” the “gcPBM binding intensity (ln)” value was 9.45.
For “ATTTTTGTAATTATTTGTACACATTTATTTATGTGT [XGTACX_site1864]”, the “gcPBM binding intensity (ln)” value was 9.66.
For “TTCAAATTGTTTATATGTACTTATAAAAATTGTCTG [XGTACX_site977]”, the “gcPBM binding intensity (ln)” value was 9.09.
For “ATTAAAAAAAAAAAAAGTACTTATAATTATACTCGT [XGTACX_site4852]”, the “gcPBM binding intensity (ln)” value was 9.11.
With “AGACCTTTAATTTGTGTGCACATAATTAGTGTACAT [GTGCAC_site9434]” the “gcPBM binding intensity (ln)” value was 9.81.
In the case of TTATATTATATATATGTGCACATTTTTAAACTTGGA, the “gcPBM binding intensity (ln)” value is reported as 9.15.
In the case of “ACAAATAAAAATATTACACACACTATTATATTGATA [CACACA_site1494]”, the “gcPBM binding intensity (ln)” value is reported as 9.86.
In the case of “GGAAGATGAAAAATAAAGCATGTGCTGTACAAACGA [CACACA_negctrl_site1625]”, the “gcPBM binding intensity (ln)” value is reported as 9.48.
In the case of “AAATATTTATATGTTACACACTGTTGATAATTTTCT [CACACA_site1347]”, the “gcPBM binding intensity (ln)” value is reported as 9.57.
With “TTAATTAGAAATCATACACACATATATATATATATA [CACACA_site173]” the “gcPBM binding intensity (ln)” value was 9.24.
In the case of “CATTCAAACAAAAAAAGTACTCATCACATAATATAT [XGTACX_site1251]”, the “gcPBM binding intensity (ln)” value is reported as 9.44.
For “AAAAAAAAAAAAAAACTTACGATTTTAAAAAGATGG [GTGCAC_negctrl_site291]”, the “gcPBM binding intensity (ln)” value was 8.93.
“GAAATGTACAAATACGTACACACATATATATATATA [CACACA_site1541]” was tested, and the “gcPBM binding intensity (ln)” value was 9.54.
In the case of “GCAAAATATTTAAAATAATATATGTGTATATTTTTA [GTGCAC_negctrl_site149]”, the “gcPBM binding intensity (ln)” value is reported as 8.99.
In the case of “TTTATATTGTTTTATTGTACATATATATTTATACAT [XGTACX_site6821]”, the “gcPBM binding intensity (ln)” value is reported as 9.51.
In the case of “AAATATATGAATAAATGTACGAAATGAATGGATGAA [XGTACX_site7108]”, the “gcPBM binding intensity (ln)” value is reported as 9.72.
In the case of “TTATAATCTTATATATGTACATATATATATTATTAT [XGTACX_site7780]”, the “gcPBM binding intensity (ln)” value is reported as 9.23.
For “AAACATGTATTTTATTGTACACATTCATAAATCACA [XGTACX_site1420]”, the “gcPBM binding intensity (ln)” value was 9.24.
In the case of “TACATGTATGTAATATGTTTTATTTTTTTCATCTCT [XGTACX_negctrl_site79]”, the “gcPBM binding intensity (ln)” value is reported as 9.15.
With “CATATTTGTTGACACACACACATATTTATATAAATA [CACACA_site7648]” the “gcPBM binding intensity (ln)” value was 9.83.
For “TTTATATGTTTAAAATGTACATGTGGTAAAAATTTT [XGTACX_site5907]”, the “gcPBM binding intensity (ln)” value was 9.07.
“GGGAGGATATTACACAGTACCCAGAAAATCTACGGA [XGTACX_site2551]” was tested, and the “gcPBM binding intensity (ln)” value was 9.02.
With “TATTCCTTATTATAATTCTTAAATAAAAAAAAAAAA [TGCATGCA_negctrl_site45]” the “gcPBM binding intensity (ln)” value was 8.48.
With “TAGGATTTTTAGTTTATTGTAACTATTATTTTATTT [CACACA_negctrl_site829]” the “gcPBM binding intensity (ln)” value was 9.35.
For “ATATATAAACTGAAGGGTACAATGAAAAAAGAACTT [XGTACX_site7219]”, the “gcPBM binding intensity (ln)” value was 9.74.
With “CCCATTATTGTTGGGGGTACAATTTTGAATATATAT [XGTACX_site2227]” the “gcPBM binding intensity (ln)” value was 9.39.
In the case of “ATATATTTATAATACACATGCAATGATATAATATAT [TGCATGCA_site20]”, the “gcPBM binding intensity (ln)” value is reported as 9.24.
“CATATATACATATATACACACATATATATATATATA [CACACA_site645]” was tested, and the “gcPBM binding intensity (ln)” value was 9.39.
With “GTAAGAAAGAAAGGAAGTACGTAAGAAAGTAAGAAC [XGTACX_site1239]” the “gcPBM binding intensity (ln)” value was 9.81.
In the case of TATATATATTATATAGTGCATTGAAGAAGGGGATTT, the “gcPBM binding intensity (ln)” value is reported as 9.22.
With “TTTTTTTTTCTGTGAGTGCATGTAATAAAATAAATT [GTGCAC_site9740]” the “gcPBM binding intensity (ln)” value was 8.98.
“TCATAATGAAAACAAGCACACATACATAAAATAAAA [CACACA_site9069]” was tested, and the “gcPBM binding intensity (ln)” value was 9.7.
In the case of “ATATGTATTAAGTGTACACATATAATGTATTTTGTT [CACACA_site4177]”, the “gcPBM binding intensity (ln)” value is reported as 9.4.
For “TTATTTACCATCTCTACACACAAAAATTGATGTAGA [CACACA_site2811]”, the “gcPBM binding intensity (ln)” value was 9.43.
With “TAAATTATATTATGCACACTTAAAAATATATTTAAC [CACACA_site3512]” the “gcPBM binding intensity (ln)” value was 9.24.
For “ATATGTAATAATAAATGTACGAAACATTGAACGATG [XGTACX_site1266]”, the “gcPBM binding intensity (ln)” value was 9.58.
“GAATCATCCAAAATTGCATGCAAGGAAGAAGAAAAA [TGCATGCA_site764]” was tested, and the “gcPBM binding intensity (ln)” value was 9.21.
In the case of “TTTTTATATATCACGTGTACATATTTATTTTTACTC [XGTACX_site8049]”, the “gcPBM binding intensity (ln)” value is reported as 9.3.
“AAATCACCTTAAGAACGTACAAACAGAAAAAAATTA [XGTACX_site4623]” was tested, and the “gcPBM binding intensity (ln)” value was 9.31.
With “TTTATTATATTTATATGTACTTATATAATATATGCA [XGTACX_site1906]” the “gcPBM binding intensity (ln)” value was 9.09.
In the case of “TTATAAATATAATATTGTACAAAATTTTAACATGTC [XGTACX_site5259]”, the “gcPBM binding intensity (ln)” value is reported as 9.15.
In the case of “CTTATGTGTATAAGTAGTACTAAATTAAAATAATAT [XGTACX_site2681]”, the “gcPBM binding intensity (ln)” value is reported as 9.27.
For “CGTATGAAACATATATGTACTTATAAAAATATAACC [XGTACX_site7539]”, the “gcPBM binding intensity (ln)” value was 9.4.
In the case of “ATAAATAAAATTAGGTGTACTTTAATTAAAGAAAAT [XGTACX_site3319]”, the “gcPBM binding intensity (ln)” value is reported as 9.29.
“TATACATATATAATATGTACATATATTTTTTTTTAA [XGTACX_site2938]” was tested, and the “gcPBM binding intensity (ln)” value was 8.98.
“CATAAAAATATTTTCTGTACATATTCATATGACGTT [XGTACX_site3406]” was tested, and the “gcPBM binding intensity (ln)” value was 9.18.
“ATAAATATTGGGTGCACACACATAATATATATATAT [CACACA_site2272]” was tested, and the “gcPBM binding intensity (ln)” value was 9.71.
In the case of “AGGTTCCCAAAATGCACACCAATGAAATTATTTATT [CACACA_site553]”, the “gcPBM binding intensity (ln)” value is reported as 9.23.
“AAAATAAAAAATATAACACACAATAAATATATATAT [CACACA_site1926]” was tested, and the “gcPBM binding intensity (ln)” value was 9.84.
With “ATAATCATTTGGATATTCACAATATTTAAAATTAAA [CACACA_negctrl_site909]” the “gcPBM binding intensity (ln)” value was 8.84.
For “GAAAAAAAAAAAAAAAAAAAAAAATTCATTTTTTTT [XGTACX_negctrl_site54]”, the “gcPBM binding intensity (ln)” value was 8.74.
With “ATTTCCTGGCTACTGTGTACTGACCTCCAGACTGCT [XGTACX_site2005]” the “gcPBM binding intensity (ln)” value was 9.28.
For “TTTTAACTTTTATATTGTACGTTGTTTATTTTATTT [XGTACX_site7504]”, the “gcPBM binding intensity (ln)” value was 9.69.
